The RNAGym collection of RNA variant scans (doi:10.1073/pnas.2313332121)
Variants at the floor of the assay are shown more often than the library holds them.

B1: TPR 5TU (parent)
chain: GGAUCUUCUCGAUCUAACAAAAAAGACAAAUCUGCCACAAAGCUUGAGAGCAUCUUCGGAUGCAGAGGCGGCAGCCUUCGGUGGCGCGAUAGCGCCAACGUUCUCAACUAUGACACGCAAAACGCGUGCUCCGUUGAAUGGAGUUUAUCAUG

Variants of: B1
Test: polymerase ribozyme fitness, log enrichment relative to wild type (log ratio); higher = more active; in vitro selection for triplet polymerase activity
Outline: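 Mutant libraries for each subunit of a heterodimeric triplet polymerase ribozyme were made by PCR and then transcribed. Each library underwent one round of in vitro selection in triplicate: annealing with a biotinylated primer, the partner subunit and triplets, frozen incubation at −7 °C, gel excision of extended constructs, streptavidin-bead capture and RT-PCR. Input and output libraries were Illumina-sequenced, and only genotypes with ≥10 input reads and ≥1 read per output were kept. Fitness is the logarithm, base 2, of genotype enrichment over wild-type enrichment, computed from inverse-variance-weighted replicate averages.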

Polymerase ribozyme fitness (log ratio), ≤ -4.2:
GGAUCUUCUCGAUGUAACAAAAAAGACAAAUCUGCCACAAAGCUGGAGAGCAGCUUCGGAUGCAGAGGCGGCAACCUUCGGUGGCGCGAUAACGCCAACGUUCUCAACUAUGACACGCAAAACGCGUGCUCCGUUGAAUGGAGUUUAUCAUG
GGAUCUUCUCGAUGUAACAAAAAAGACAAAUCUGCCACAAAGCUUGAGAGCAUCACCGGAUGCAGAGUCGGCAGCCUUCGGUGGCGCGAUUGCGCCAACGUUCUCAACUAUGACACGCAAAACGCGUGCUCCGUUGAAUGGAGUUUAUCAUG
GGAUCUUCUCGAUGUAACAAAAAAGACAAAUCUGCCACAAAGCUUGAGAGCAUCUACGGAUGUAGAGGCGGCAGCCUUCGGAGGCGCAAUAGCGCCAACGUUCUCAACUAUGACACGCAAAACGCGUGCUCCGUUGAAUGGAGUUUAUCAUG
GGAUCUUCUCGAUGUAACAAAAAAGACAAAUCUGCCACAAAGCUUGAGAGCAUCUACGGAUGCAGAGGCGGCAGCCUUCGGUGGCGCUAUACCGCCAACGUUCUCAACUAUGACAUGCAAAACGCGUGCUCCGUUGAAUUGAGUAUAUCAUG
GGAUCUUCUCGAUGUAACAAAAAAGACAAAUCUGCCACAAAGCUUGAGAGCAUCUUCGGAAGCAUAGGCGGGAGCCUUCGGUGGCGCGAUAGCGCCAACGUUCUCAACUAUGACACGCAAAACGCGUGCUCCGUUGAAUGGAGUUUAUCAUG
GGAUCUUCUCGAUGUAACAAAAAAGACAAAUCUGCCACAAAGCUUGAGAGCAUCUUCGGAAGCAGAGGCGGCAGCCUUCGGUGGCACGAUAGCGCCAACGUUCUCAACUAUGACACGCAAAACGCGUGCUCCGUUGAAUGGAGUUUAUCAUG
GGAUCUUCUCGAUUUCACAAAUAAGACAAAUCUGCCACAAAGCUUGAGAGCAUCUUCGGAUGCAGAGGCGGCAGCCUUCGGUGGCGCGAUAGCGCCAAAGUUCUCAACUAUGACACGCAAAACGCGUGCUCCGUUGAAUGGACUUUAUCAUG
GGAUCUUCUCGAUUUAGCAAAGAAGACAAACCUGCCACAAAGCUUGAGAGCAUCUUCGGAUGCAGAGGCGGCAGCCUUCGGUGACUCGAUAGCGCCAAAGUUCUCAACUAUGACACGCAAAACGCGUGCUCCGUUGAAUGGAGUUUAUCAUG
GGAUCUUCUCGAUUUAGCAAAAAAGACAAAUCUGCCACGAAGCAUGAGAGCAUCUUCGGAUGCAGAGGCGGCAGCCUUCGGUGGCGCGAUAGCGCCAACGUUCUCAUCUAUGACACGCAAAACGCGUGCUCCGUUGAAUGGAGUUUAUCGUG
GGAUCUUCUCGAUUUAGCAAAAAAGACAAAUCUGCCAUAAAGCUUGAGAGCAUCUUCCGAUGCAGAGGCGGCAGCUUUCGGUGGCGCGAUAGCACCAACGUUCUCAACUAUCACACGCAAAACGCGUGCUCCGUUGAAUGGAGUUUAUCAUG
GGAUCUUCUCGAUUUAUCAAAAAGGACAAAUCUGCCACAAAGCUUGAGAGCAACUUCGGAUGCAGAGGCGGCAUCCUUCCGUGGCGCGUUGGCUCCAACGUUCUCAACAAUGACACGCAAAACGCGUGCUCCGUUGUAUGGAGUUUAUCAUG
GGAUCUUCUCGAUUUAUUACACAAGAUAAAUCUGCCACAAAGCUUGAGAGGAUCUUCGGAUGCAGAGGCAGCAGCCUUCGGUGGGGCGAUAGCGCCAACGUGCUCAAAUAUGACACGCAAAACGCGUGCUCCGUUGAAUGGAGUUUAUCAUG
GGAUCUUCUCGAUUUAUCAAAAAAGACAAAUCUGCCACAAAGCUUGAGAGCAUCUUCGGAUGCAGAGGCGGCAGCAUUCGGUGGGGCGAUAGCGCCAACGUUCUUAACUAUGACACGCAAAACGCGUGCUCCGUAGAAUGGAGUUUAUCAUG
GGAUCUUCUCGAUUUAACCAAAAAGACAAAUCUGCCACAAAGCUUGAGCGCGACUUCGGAUGCAGAGGCGGCAGCCGUCGGUGGCCCGAUAGCGCCAACGUUCUCAACUGUGACACGCAAAACACGUGCUCCGUUGAAUGGAGUUUAUCAUG
GGAUCUUCUCGAUUUAACGAAAAAGAUGAAGCUGCCACAAAGCUUGAGAGCAUCUUCGGAUGCAGAGGCGGCAGACUUCGGUGGCGCGAUAGCGCCAAGGUUCUCAACUAUGACACGCAAAACGCGUGCUCCGUUGAAUGGAAUUUAUCAUG
GGAUCUUCUCGAUUUAACUAAAAUGACAAAUUUGCCACAAAGCUUGAGAGCAUCUUCGGAUGCAGAGUCGGGAGCCUUCGGUGACGCGAUAGCGCCAACGUUCUCAACUAUGACACGCAAAACGCGUGCUCGGUUGAAUGGAGUUAAUCAUG
GGAUCUUCUCGAUUUAACACAAAAGACAAAUCUGCCACAAAGCUUGAGAGCAUCAUCGGAUGCAGAGGCGGAAGCCUUCGGUGGCGCGAAAGCGCCAACGUUCUCGACUAUGACACGCAAAACGCGUGCUCCGUUGAAUGGAGCUUAUCAUG
GGAUCUUCUCGAUUUAACAUAAAAGACAUAUCUGCCACAAAGCUUGCGAGCAUCUACGGAGGCAGAGGCGGCAGCCUUCGGGGGCGCGAUAGCGCCAACGUUCUCAACUAUGACACGCAAAACGCGUGCUCCGUUGAAUGGAGUUUAUCAUG
GGAUCUUCUCGAUUUAACAUAAAAGACAAAUCUGCCACAAAGCUUGAAAGCAUCUUCGGAUGCAGAGGCGGUAGCCUUCGGUGGCGUGAUAGCGCCAACGUUCUCAACUAUGACACGCAAAACGCGUGCUCCGUUGAAUGGAGUUUAUCAUG
